Measured values as given in PubChem BioAssay (NCI).
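Following 48 hours of exposure in 96-well plates, responses at five concentrations were used to interpolate endpoints linearly. Here, GI50 denotes the concentration required for 50% inhibition of growth.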 Not every entry of the source has a single result; some have several. They are shown here; other results are not. There may be further records. Results that share an entry repeat one measurement across runs, samples, wells, individuals or studies. What stands in brackets tells the records apart. Letters hold for one entry only.

Experiments:
Assay in all cases: DTP human tumour cell line panel, 48 h
[1] = test system: MDA-MB-435
[2] = test system: LOX IMVI melanoma
[3] = test system: K-562 leukemia
[4] = test system: SR leukemia

COc1cc(C)c(-c2ccc(=O)c(OC)cc2C)c(OC)c1OC
GI50 [1]: > 100 µM [sample A, 1 test] and 3.45 µM [sample B, 1 test] | GI50 [2]: > 100 µM [sample A, 1 test] and 6.68 µM [sample B, 1 test] | GI50 [3]: > 100 µM [sample A, 1 test] and 4.97 µM [sample B, 1 test] | GI50 [4]: > 100 µM [sample A, 1 test] and 5.72 µM [sample B, 1 test]
